According to PubChem BioAssay AID2202238 (Ras Initiative Chemistry Research Team, Frederick National …, 2025):
The list shows a part of the results. Shown are side measurements of this screen, not its main read-out; they come without a call.

Target: GTPase KRas (Homo sapiens) (UniProt P01116)
Assay: Fragment capture on engineered cysteines, share of protein labelled (AID 2202238)
Design: protein at 5 µM with 500 µM competing thiol for 1.5 h
Details: KRAS G12D cysteine mutants, disulfide tethering, MALDI-TOF labeling, stronger effect = higher value, fragment at 500 µM
[1] = measured here: G60C mutant labeling
[2] = measured here: G75C mutant labeling
[3] = measured here: H94C mutant labeling
[4] = measured here: I36C mutant labeling
[5] = measured here: L120C mutant labeling
[6] = measured here: M67C mutant labeling
[7] = measured here: M72C mutant labeling
[8] = measured here: N26C mutant labeling
[9] = measured here: N86C mutant labeling
[10] = measured here: P121C mutant labeling
[11] = measured here: S122C mutant labeling
[12] = measured here: S136C mutant labeling

Chain of UniProt P01116 (P01116 whole entry, looked up, the tested form may be a part): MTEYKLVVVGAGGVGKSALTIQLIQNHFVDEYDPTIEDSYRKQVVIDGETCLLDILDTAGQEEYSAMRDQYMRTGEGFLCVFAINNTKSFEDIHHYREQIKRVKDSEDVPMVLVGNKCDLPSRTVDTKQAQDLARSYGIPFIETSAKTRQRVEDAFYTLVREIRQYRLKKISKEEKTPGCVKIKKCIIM

Row | SMILES | percent labeling [1] | percent labeling [2] | percent labeling [3] | percent labeling [4] | percent labeling [5] | percent labeling [6] | percent labeling [7] | percent labeling [8] | percent labeling [9] | percent labeling [10] | percent labeling [11] | percent labeling [12]
1 | CC(C)(C)c1ccc2[nH]c(C(=O)NCCS)cc2c1 | 16.3% | 10.5% | 8.5% | 7.3% | 14.7% | 8.4% | 23.4% | 15.1% | 11.9% | 10.8% | 9.1% | 11.2%
2 | CC(=O)NC1(c2noc(CCC(=O)NCCS)n2)CCCCCC1 | 28.5% | 9.5% | 27.4% | 19.8% | 35.6% | 26.2% | 14.4% | 31.9% | 16.9% | 29% | 25.1% | 34%
3 | Cc1c[nH]c(=O)n1-c1ccc(C(=O)NCCS)cc1 | 13.3% | 4% | 8.3% | 0% | 11.5% | 8.1% | 6.8% | 16.9% | 11.6% | 11.1% | 12.3% | 15.2%
4 | O=C(CCS)N1CCN(c2ccc(F)cc2Cl)CC1 | – | 17.9% | 22.6% | 26.6% | 19.9% | 20.4% | 38.7% | – | 19.1% | 20.4% | 18.3% | 37.3%
5 | CC(=O)Nc1ccc(CNC(=O)CCS)cc1 | – | 11.5% | 25.2% | 40.3% | 27.1% | 31.2% | 20.7% | – | 29% | 29.6% | 34.7% | 39.2%
6 | O=C(CCS)N1CC(c2nnc(CO)s2)C1 | – | 5.3% | 15.6% | 20% | 17.8% | 24.7% | 9.9% | – | 10.6% | 28.6% | 21% | 34.9%
7 | Cn1cnc2ccc(C(=O)NCCS)nc21 | 33.6% | 25.4% | 40.5% | 26.4% | 32.2% | 33.2% | 47.9% | 47.2% | 26.6% | 27.6% | 27.8% | 51.5%
8 | Cc1cc(C)n2nc(C)c(C(=O)NCCS)c2n1 | 28.8% | 22.4% | 22.5% | 8.4% | 16.2% | 29.1% | 34.3% | 34% | 10.4% | 12.9% | 10.9% | 35.9%
9 | COc1ccccc1Cn1cnc2cc(C(=O)NCCS)ccc21 | 20% | 11.4% | 8.3% | 5.6% | 12.7% | 13.2% | 28.8% | 27.4% | 5.2% | 7% | 3.7% | 16.8%
10 | Cc1cc(C)c(C)c(OCCC(=O)NCCS)c1 | 26.5% | 11.5% | 13.9% | 9.7% | 21.3% | 7.5% | 19.3% | 21% | 5.3% | 13.5% | 8.1% | 14.6%
11 | O=C(NCCS)c1c[nH]cc1Cc1ccccc1 | 25.4% | 11.8% | 18.8% | 4.3% | 18% | 15.4% | 22.9% | 13% | 2.6% | 9% | 0% | 4.7%
12 | Cc1cc(NC(=O)CCS)nn1Cc1cccc(C(F)(F)F)c1 | – | 10.4% | 11.9% | 11% | 13.8% | 10.2% | 23.5% | – | 13% | 9.5% | 7.7% | 18.2%
13 | Cc1c(C(=O)NCCS)oc2ccccc2c1=O | 21.5% | 17.1% | 16.8% | 12.2% | 13.2% | 14.1% | 47.4% | 34.5% | 9.1% | 46% | 9.3% | 26.2%
14 | O=C(CCS)Nc1ccn(Cc2cn3ccccc3n2)n1 | – | 16.6% | 37.7% | 47.8% | 33.9% | 46.5% | 35.4% | – | 38.3% | 26.2% | 26% | 44.7%
15 | O=C(NCCS)c1cccc(C(=O)Nc2ccccc2)c1 | 14% | 8.2% | 12.5% | 10.6% | 19.4% | 11% | 16.8% | 31% | 7.5% | 12.7% | 7.3% | 12.8%
16 | Cn1nc(NC(=O)CCS)cc1COCCC(F)(F)F | – | 11.4% | 32.2% | 33.7% | 33.1% | 28.2% | 27.1% | – | 23% | 25.2% | 30.3% | 42.1%
17 | O=C(CCS)NC1CCN(C2CCC2)CC1 | – | 11.4% | 22.1% | 44.4% | 19.2% | 36.4% | 12.9% | – | 19.9% | 27.6% | 21.2% | 41.5%
18 | O=C(NCCS)c1cc2n(n1)CCCC2 | 37.2% | 23.5% | 38.7% | 29.1% | 43.4% | 37.5% | 46.3% | 38.7% | 29.3% | 29.7% | 33.2% | 49.7%
19 | O=C(NCCS)c1cnn(C2CCOCC2)c1 | 28.6% | 13.8% | 28.9% | 24.9% | 36.8% | 32.6% | 24.1% | 41.8% | 22.3% | 28.1% | 29.7% | 46.8%
20 | CN(C)c1ncc2c(n1)CCN(C(=O)CCS)C2 | – | 11.4% | 17.2% | 18.4% | 12.3% | 25.9% | 17.4% | – | 8.6% | 17.7% | 25% | 46.2%
21 | Cc1nn(C)cc1CN(CCO)C(=O)CCS | – | 8.1% | 24.4% | 35.5% | 25.8% | 33.5% | 11.7% | – | 17.8% | 27.5% | 25.7% | 47.5%
22 | CC(C)(C(=O)NCCS)c1cccc(Cl)c1F | 59.4% | 27.4% | 37% | 24.3% | 38.5% | 33.5% | 62.8% | 36.6% | 24.6% | 26.2% | 27% | 41.2%
23 | Cc1ccc(C2CCCN2C(=O)CCS)s1 (stereo unspecified) | – | 20% | 40.8% | 30.7% | 27.3% | 32.7% | 37.4% | – | 23.9% | 32.6% | 28.7% | 55.2%
